# In all, about 110,000 compounds went through this assay and about 230 (0.21%) showed an effect of 50% or more. This is one part of the list.
# Biological target: DPAP1 (Plasmodium falciparum, UniProt Q8IIJ9)
# Assay: primary screen, percent inhibition; read by cleavage of a fluorogenic dipeptide substrate; higher = more effect of the substance
# Parameters: species or system P. falciparum D10 trophozoite lysates; single well
# 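Further: 30 min substrate incubation versus DMSO and 10 µM JCP410 controls.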
# DPAP1, sequence (Q8IIJ9 whole entry, looked up): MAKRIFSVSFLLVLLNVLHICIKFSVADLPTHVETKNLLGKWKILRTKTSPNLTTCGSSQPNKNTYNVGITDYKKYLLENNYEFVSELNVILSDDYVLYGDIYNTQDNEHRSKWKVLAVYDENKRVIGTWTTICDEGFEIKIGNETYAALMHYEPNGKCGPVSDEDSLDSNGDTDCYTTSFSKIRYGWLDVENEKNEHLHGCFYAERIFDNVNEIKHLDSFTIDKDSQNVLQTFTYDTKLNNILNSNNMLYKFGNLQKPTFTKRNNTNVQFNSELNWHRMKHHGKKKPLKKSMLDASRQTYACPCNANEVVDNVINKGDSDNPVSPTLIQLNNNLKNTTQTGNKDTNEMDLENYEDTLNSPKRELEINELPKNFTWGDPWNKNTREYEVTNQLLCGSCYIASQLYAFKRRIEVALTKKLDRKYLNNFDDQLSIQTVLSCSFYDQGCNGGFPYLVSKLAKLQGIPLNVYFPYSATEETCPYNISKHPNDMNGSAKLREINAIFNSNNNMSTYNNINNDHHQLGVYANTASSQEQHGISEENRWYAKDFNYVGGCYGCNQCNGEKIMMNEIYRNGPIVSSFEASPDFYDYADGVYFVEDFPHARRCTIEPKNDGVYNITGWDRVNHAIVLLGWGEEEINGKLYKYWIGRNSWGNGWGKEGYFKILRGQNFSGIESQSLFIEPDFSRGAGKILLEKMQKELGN
row,Structure (SMILES),% Inhibition @ 10 uM
1,O=C1NC(=S)NC(=O)C1C/C=C/c1ccccc1,-8.15%
2,NC(=O)c1cc(-c2ccc(Cl)cc2)nc2ccc(Br)cc12,0.565%
3,CC(=O)c1ccc(N2C(=O)C3CC(C)=C(C)CC3C2=O)cc1 (stereo not shown),-2.67%
4,COc1cc(/C=C2\SC(N3CCOCC3)=NC2=O)cc(OC)c1OC,1.84%
5,CC(C(=O)NCC1CCCO1)n1ncn2cccc2c1=O (stereo not shown),-8.23%
6,CN(Cc1ccccc1)C(=O)Nc1ccc(Cl)cc1,-2.3%
7,CC(NC(=O)CN1CCN(Cc2ccc(Cl)cc2)C1=O)c1ccc2c(c1)OCCO2 (stereo not shown),5.47%
8,CSc1ccc(C2C3=C(O)CC(C)(C)CC3=NC(C)=C2C(=O)Nc2ccccn2)cc1 (stereo not shown),-4.48%
9,COc1ccccc1CNC(=O)c1cc2c(s1)-c1ccccc1S(=O)(=O)C2,4.4%
10,Cc1c(CNCCCc2ccccc2)c(C(=O)O)c(C)n1Cc1c(F)cccc1Cl,-1.92%
11,NC(=O)C1CCN(C(=O)CSc2nc3c(c(-c4ccccc4)n2)CCCC3)CC1,5.66%
12,CC1CCC(N2CCN(C/C=C/c3ccccc3)CC2)CC1 (stereo not shown),1.37%
13,Clc1cccc(OCCCCCN2CCOCC2)c1,-2.54%
14,COc1ccc(C(=O)NCc2cn3c(C)csc3n2)cc1OC,-0.72%
15,CCC[C@H](NC(=O)C1(NC(=O)c2ccc(OC(F)(F)F)cc2)CCCCC1)C(=O)c1nnc(-c2cccc(OC)c2)o1,1.7%
16,COc1ccc(NC(=O)/C=C/c2ccccc2Cl)cc1,-2.34%
17,C=CCn1c2ccccc2n2cc(-c3ccccc3)nc12,-2.2%
18,CN1C(=O)C(=Cc2c[nH]c3ccccc23)C(=O)N(C)C1=O,0.343%
19,N#Cc1c(NC(=O)CCCCC(=O)Nc2sc3c(c2C#N)CCC3)sc2c1CCC2,-0.053%
20,O=C1OC(c2ccc(Cl)cc2Cl)=N/C1=C\c1ccc(F)cc1,-0.972%
21,C=CCNC(=O)c1c(NC(=O)c2ccccc2F)sc2c1CCCCC2,5.03%
22,Cc1ccnc(N2C(=O)c3ccccc3C2O)c1 (stereo not shown),0.708%

row,Structure (SMILES),% Inhibition @ 10 uM
1,O=C(CCc1nnc2n(CCc3ccccc3)c(=O)c3ccccc3n12)NCCC1=CCCCC1,-0.692%
2,Cc1cc(Oc2coc3cc(O)ccc3c2=O)cc(C)c1Cl,0.709%
3,CCCCN1C(=O)c2ccccc2S1(=O)=O,-5.08%
4,CC1(C)CC(NC(=O)C23CCC(C)(c4nc5ccccc5nc42)C3(C)C)CC(C)(C)N1 (stereo not shown),3.24%
5,COc1cccc(NC(=O)COc2ccccc2C)c1,0.709%
6,COc1cccc(CNC(=O)C(C)n2nc(C)c3sc4ccccc4c3c2=O)c1 (stereo not shown),-1.6%
7,O=C(c1ccc(CN(c2ccccc2)S(=O)(=O)c2ccccc2)cc1)N1CCOCC1,-0.992%
8,Cc1sc2c3ccsc3ccc2[n+]1C,-4.84%
9,CC1CC(C)CN(CCCNC(=O)CCCc2cn(C)c3ccccc23)C1 (stereo not shown),1.51%
10,CSc1ncc(C(=O)NCCc2ccc(Cl)cc2)c(C)n1,4.94%
11,O=C(CCN1CCN(C2C3CC4CC(C3)CC2C4)CC1)N1c2ccccc2Sc2ccc(Cl)cc21 (stereo not shown),-1.15%
12,CC1=C(C(=O)OCCC(C)C)C(c2ccc(F)cc2)NC(=O)N1 (stereo not shown),5.92%
13,CCOC(=O)c1c(NC(=O)c2nn(C)cc2Br)sc(C)c1C,3.31%
14,Cc1onc(-c2ccccc2)c1C(=O)NCCCCc1ccccc1,-3.63%
15,CCc1nn2c(=O)cc(COc3ccc(/C=C(\C#N)C(=O)NCc4ccccc4)cc3)nc2s1,-0.495%
16,CCN(Cc1ccccc1)S(=O)(=O)c1cc(-c2cc(C)no2)ccc1C,-5.09%
17,CC1=C(C(=O)Nc2ccc(C)cn2)C(c2ccccn2)C2=C(O)CC(C)(C)CC2=N1 (stereo not shown),-2.64%
18,Cc1ccc(N2C(=O)C3C4c5ccccc5C(C(C)O)(c5ccccc54)C3C2=O)cc1 (stereo not shown),53.4%
19,Nc1ncc(Br)cc1S(=O)(=O)NCCc1ccc(Cl)cc1,0.655%
20,CC(=O)c1c(C)nc2c(c1-c1ccc(Br)cc1)C(=O)c1ccccc1-2,3.53%
21,CC(NC(=O)C(C)n1ncn2cccc2c1=O)c1ccccc1 (stereo not shown),-5.95%
22,COC1CC(C)(C)Oc2ccc3oc(C(=O)N4CCc5ccccc5C4)c(C)c3c21 (stereo not shown),-5.15%

row,Structure (SMILES),% Inhibition @ 10 uM
1,O=C(O)C1CCN(C2CC(=O)N(c3cccc(Br)c3)C2=O)CC1 (stereo not shown),-0.63%
2,Clc1cccc(CN2CCN(c3ncccn3)CC2)c1,1.63%
3,Cc1nc2ccccn2c(=O)c1Oc1ccccc1,3.78%
4,Cc1ccc(NCN2C(=O)C3C4C=CC(C4)C3C2=O)cc1C (stereo not shown),0.751%
5,O=C1c2cccc([N+](=O)[O-])c2C(=O)N1c1ccncc1,-3.77%
6,CCOC(=O)c1[nH]c(C)c(C(C)=O)c1C,3.32%
7,Cc1ccc2[nH]c(SCC(=O)Nc3nonc3-n3cccc3)nc2c1,1.32%
8,COc1ccc(-c2cc(C(=O)O)c3ccccc3n2)cc1OC,-2.85%
9,Clc1cccc(OCCCCN2CCCCC2)c1,3%
10,CC(=O)Nc1ccc(C(=O)N2CCCC2)cc1,4.04%
11,Cc1ccccc1C(=O)Nc1ccc(S(=O)(=O)N2CCCCCC2)cc1,6.65%
12,COc1ccc2[nH]cc(CC/N=C3/SCC(=O)N3C)c2c1,6.12%
13,CCCN1C(=O)c2cc(C(=O)NCCCOC(C)C)ccc2C1O (stereo not shown),4.41%
14,O=C(c1ccco1)N(C1CCCCC1)C1CCCCC1,-2.22%
15,CC(=O)N1CC(c2ccc(OC(C)C)cc2)CC1=O (stereo not shown),1.96%
16,O=C1OC(c2ccccc2)=N/C1=C\c1ccccc1C(F)(F)F,0.997%
17,O=S(=O)(c1cccc(S(=O)(=O)N2CCCCC2)c1)c1cccc(S(=O)(=O)N2CCCCC2)c1,0.937%
18,CC1=C(C(=O)OCCOc2ccccc2)C(c2ccccc2F)C2=C(O)CC(C)(C)CC2=N1 (stereo not shown),0.997%
19,CCOC(=O)c1cc(NC(=O)N(C(C)C)C2CCCCC2)c(C)nc1C,5.7%
20,CC1=NN(C(=O)c2cc3nc(-c4ccccc4)cc(C(F)(F)F)n3n2)C(O)(C(F)(F)F)C1 (stereo not shown),-4.89%

# — PMC6919601, “Identification of Plasmodium dipeptidyl aminopeptidase allosteric inhibitors by high throughput screening” (PLoS ONE, 2019)
